# Data reported in PubChem BioAssay (NCI).
#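 Where inhibition never reached the appropriate level, the endpoint shown equals the highest concentration tested. Otherwise, values were interpolated linearly from a five-concentration, 48-hour dose response in 96-well plates. Abbreviation: GI50, concentration required for 50% inhibition of growth. At the TGI there is no net growth.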
# Test system: NCI-H322M lung
# Assay: growth of human tumour cells (NCI), 48 h
smiles,measurement,value
O=C1c2c(c3c4cc(Br)ccc4[nH]c3c3ccc4ccccc4c23)C(=O)N1CCN1CCCCC1,GI50,1.82 µM
same,TGI,5.01 µM
